Laboratory results reported in publication PMC4336329 (PLoS ONE, 2015).
The whole screen tested about 310,000 compounds, of which about 2,200 (0.71%) showed an effect of 50% or more. The effect is printed as a negative number. The list shows a part of the results.

Each compound was assayed against human ether-à-go-go-related gene (hERG) potassium channel (human, UniProt Q12809) (assay: primary screen, population patch clamp on CHO cells stably expressing hERG).
human ether-à-go-go-related gene (hERG) potassium channel, sequence (Q12809 whole entry, looked up): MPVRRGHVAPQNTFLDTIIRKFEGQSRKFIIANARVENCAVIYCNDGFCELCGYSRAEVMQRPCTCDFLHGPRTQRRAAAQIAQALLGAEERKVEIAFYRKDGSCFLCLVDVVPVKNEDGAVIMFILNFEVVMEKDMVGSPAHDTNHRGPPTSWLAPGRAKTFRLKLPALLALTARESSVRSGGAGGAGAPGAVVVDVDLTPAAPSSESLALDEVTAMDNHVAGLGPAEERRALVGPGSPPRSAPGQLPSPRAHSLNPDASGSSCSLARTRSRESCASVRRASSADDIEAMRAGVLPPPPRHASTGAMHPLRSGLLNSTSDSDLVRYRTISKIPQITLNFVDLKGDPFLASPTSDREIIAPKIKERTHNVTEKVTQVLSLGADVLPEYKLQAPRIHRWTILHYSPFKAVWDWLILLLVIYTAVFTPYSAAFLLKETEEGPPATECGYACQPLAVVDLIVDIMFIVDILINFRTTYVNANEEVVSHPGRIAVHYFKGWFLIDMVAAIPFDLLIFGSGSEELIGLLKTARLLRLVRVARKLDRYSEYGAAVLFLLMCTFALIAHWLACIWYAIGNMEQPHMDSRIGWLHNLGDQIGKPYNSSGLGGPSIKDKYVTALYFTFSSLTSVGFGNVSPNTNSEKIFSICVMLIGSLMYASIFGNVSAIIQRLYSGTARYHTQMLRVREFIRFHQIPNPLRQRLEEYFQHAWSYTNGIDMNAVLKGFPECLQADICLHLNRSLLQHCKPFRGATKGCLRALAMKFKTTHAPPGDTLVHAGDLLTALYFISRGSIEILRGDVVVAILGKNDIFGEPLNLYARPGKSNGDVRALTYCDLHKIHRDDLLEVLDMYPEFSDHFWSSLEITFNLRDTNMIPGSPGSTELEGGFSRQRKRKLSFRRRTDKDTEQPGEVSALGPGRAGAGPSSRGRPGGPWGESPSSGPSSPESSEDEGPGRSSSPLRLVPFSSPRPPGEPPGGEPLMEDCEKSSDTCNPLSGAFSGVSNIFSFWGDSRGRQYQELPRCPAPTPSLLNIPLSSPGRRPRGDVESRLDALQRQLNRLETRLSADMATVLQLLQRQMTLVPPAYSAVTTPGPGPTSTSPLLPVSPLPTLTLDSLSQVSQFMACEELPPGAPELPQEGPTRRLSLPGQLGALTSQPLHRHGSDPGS
For COc1ccc(C(=O)NCCCc2nc3ccccc3n2Cc2ccccc2C)cc1OC, the “hERG current change (%, negative = inhibition) at 1uM” value was -4.12%. With O=C(O)CC(Cc1ccccc1)C(=O)Nc1ccc([N+](=O)[O-])cc1 (stereo not shown) the “hERG current change (%, negative = inhibition) at 1uM” value was -0.798%. For Cc1sc2ncnc(NCC3CCCO3)c2c1C.Cl (stereo not shown), the “hERG current change (%, negative = inhibition) at 1uM” value was 5.91%. For CC12CCC(C(=O)N(c3ccccc3Cl)C1=O)C2(C)C (stereo not shown), the “hERG current change (%, negative = inhibition) at 1uM” value was -7.03%. For CCN(CC(=O)Nc1c(F)cccc1F)C(=O)/C=C/c1c(C)nn(-c2ccc(F)cc2)c1C, the “hERG current change (%, negative = inhibition) at 1uM” value was 18.3%. CCN1C(=NCCCCO)N[C@@H](c2cccc(C(F)(F)F)c2)C(C(=O)OC)=C1C was tested, and the “hERG current change (%, negative = inhibition) at 1uM” value was 15.7%. CC1=CN2CC(O)CN=C2C=C1.Cl (stereo not shown) was tested, and the “hERG current change (%, negative = inhibition) at 1uM” value was -2.43%. In the case of CCOc1ccc(CCNC(=O)c2cc([N+](=O)[O-])ccc2N2CCOCC2)cc1OCC, the “hERG current change (%, negative = inhibition) at 1uM” value was -4.36%. For COc1ccc(-n2c(=O)c3ccccc3n(Cc3cccc(C)c3)c2=O)cc1OC, the “hERG current change (%, negative = inhibition) at 1uM” value was 6.87%. In the case of O=C(Nc1nc2c(Cl)cccc2s1)C1CC1, the “hERG current change (%, negative = inhibition) at 1uM” value was 11.6%. With Cn1nc(C(F)(F)F)c(-c2ccc(F)cc2)c1NC(=O)Nc1ccc(F)cc1 the “hERG current change (%, negative = inhibition) at 1uM” value was 8.82%. CSc1ccccc1C(=O)NCC1CCCO1 (stereo not shown) was tested, and the “hERG current change (%, negative = inhibition) at 1uM” value was -5.4%. COC(=O)CSc1nnc(-c2cnccn2)n1C was tested, and the “hERG current change (%, negative = inhibition) at 1uM” value was 8.35%. O=C(CSc1nnnn1C1CCCC1)Nc1ccccc1F was tested, and the “hERG current change (%, negative = inhibition) at 1uM” value was 3.31%. In the case of CCOc1ncccc1C(=O)OCC(=O)c1c(N)n(C)c(=O)n(C)c1=O, the “hERG current change (%, negative = inhibition) at 1uM” value was 5.09%. For Cc1cc(C)n(CCNC(=O)c2cc(COc3ccc4ncccc4c3)on2)n1, the “hERG current change (%, negative = inhibition) at 1uM” value was 5.98%. COc1cc(/C=C/C(=O)OCc2cn3cc(Cl)ccc3n2)ccc1O was tested, and the “hERG current change (%, negative = inhibition) at 1uM” value was 10.3%. For CC1(C)CC(=O)C(C=NC2CCCCC2)=C(O)C1, the “hERG current change (%, negative = inhibition) at 1uM” value was 1.05%. With CCCN1C(=O)C(NC(C)=O)c2ccccc21 (stereo not shown) the “hERG current change (%, negative = inhibition) at 1uM” value was 0.349%. CCCCCSc1nc(O)cc(=O)[nH]1 was tested, and the “hERG current change (%, negative = inhibition) at 1uM” value was 12.8%. For O=C(Nc1ccc(Cl)cc1)ON=C1CCCC1, the “hERG current change (%, negative = inhibition) at 1uM” value was 9.85%. With CCNC(=S)N1CCN(S(=O)(=O)c2ccc(C)cc2)CC1 the “hERG current change (%, negative = inhibition) at 1uM” value was 9.13%. With O=C1c2ccccc2C(=O)C1Cc1cccc2ccccc12 the “hERG current change (%, negative = inhibition) at 1uM” value was -10.2%. In the case of O=C(/C=C/c1ccccc1)C1C(=O)c2ccccc2C1=O, the “hERG current change (%, negative = inhibition) at 1uM” value was 2.28%. COc1ccc(N/N=C(\C#N)C(N)=O)cc1 was tested, and the “hERG current change (%, negative = inhibition) at 1uM” value was 8.96%. In the case of CCOc1cc(/C=N/NS(=O)(=O)c2ccccc2)ccc1OS(=O)(=O)c1ccc(C)cc1, the “hERG current change (%, negative = inhibition) at 1uM” value was 9.42%. CCOC(=O)N1CCC(NC(=O)c2cccc3c2C(=O)N(CCOC)C3)CC1 was tested, and the “hERG current change (%, negative = inhibition) at 1uM” value was 13.8%. CCCOC(=O)N[C@@H]1C(=O)N2C(C(=O)OCCC)=C(C)CS[C@H]12 was tested, and the “hERG current change (%, negative = inhibition) at 1uM” value was 3.49%. In the case of O=C(N/N=C/c1c(O)n(-c2ccccc2Cl)c(=O)c2ccccc12)C1COc2ccccc2O1 (stereo not shown), the “hERG current change (%, negative = inhibition) at 1uM” value was 14.1%. In the case of COc1ccc(CC(=O)Oc2ccc(C)cc2C)cc1, the “hERG current change (%, negative = inhibition) at 1uM” value was 9.54%. Cc1c(C(=O)Nc2ccc3c(c2)OCCO3)sc2ncnc(N3CCCCC3C)c12 (stereo not shown) was tested, and the “hERG current change (%, negative = inhibition) at 1uM” value was 16.8%. With CN1c2ccccc2C(=O)NC1c1ccc(Cl)cc1 (stereo not shown) the “hERG current change (%, negative = inhibition) at 1uM” value was 8.1%. Cc1cc(NCC(c2ccccc2)c2ccccc2)n2ncnc2n1 was tested, and the “hERG current change (%, negative = inhibition) at 1uM” value was -6.98%. In the case of Cc1ccc(-c2nc3ncccc3o2)cc1NC(=O)c1ccccc1, the “hERG current change (%, negative = inhibition) at 1uM” value was -0.137%. In the case of Cc1cccc(NC(=O)CC2C(=O)NCCN2C(=O)Nc2ccc(Cl)cc2)c1 (stereo not shown), the “hERG current change (%, negative = inhibition) at 1uM” value was 5.27%. With Cc1nn(-c2ccccc2C(F)(F)F)c(=O)c2noc(C)c12 the “hERG current change (%, negative = inhibition) at 1uM” value was 13.3%. CCN(CC(=O)Nc1ccccc1C(=O)OC)S(=O)(=O)c1ccc(OC)cc1 was tested, and the “hERG current change (%, negative = inhibition) at 1uM” value was -5.84%. In the case of CCOC(=O)N1CCN(CC(O)c2ccccc2)CC1.O=C(O)C(=O)O (stereo not shown), the “hERG current change (%, negative = inhibition) at 1uM” value was 12.5%. With O=C(c1ccc(S(=O)(=O)Nc2cccc(C(F)(F)F)c2)cc1)N1CCOCC1 the “hERG current change (%, negative = inhibition) at 1uM” value was 9.08%. With CCCCn1c(N)c(N(CC(C)C)C(=O)CN(C)Cc2cccc(OC)c2)c(=O)[nH]c1=O the “hERG current change (%, negative = inhibition) at 1uM” value was 2.45%. In the case of Nc1ccccc1Sc1cc(Cl)nnc1Cl, the “hERG current change (%, negative = inhibition) at 1uM” value was 3.55%. Cn1c(Cc2ccccc2)nnc1SCC(=O)Nc1ccc2c(c1)OCCO2 was tested, and the “hERG current change (%, negative = inhibition) at 1uM” value was -8.79%. With Cc1ccc(S(=O)(=O)N(C)CC(=O)O/N=C(\N)c2ccccn2)cc1 the “hERG current change (%, negative = inhibition) at 1uM” value was 10.5%. For CS(=O)(=O)N(CC(=O)NCc1ccc2c(c1)OCO2)C1CCCCC1, the “hERG current change (%, negative = inhibition) at 1uM” value was 3.44%. With Cc1cc(NC(=O)c2ccc(C)c([N+](=O)[O-])c2)no1 the “hERG current change (%, negative = inhibition) at 1uM” value was 15.8%. For Cc1cccc(NC(=S)N(C)C2(c3ccccc3Cl)CCCCC2=O)c1 (stereo not shown), the “hERG current change (%, negative = inhibition) at 1uM” value was 4.38%.
